Some of the results follow.
Legend:
Assay in all cases: glycan array binding signal (z-score within array); higher = stronger binding
Conditions in all cases: glycan notation: IUPAC condensed, linker removed
[1] = target: Neu5Ac(a2-3)Gal(b1-3)[Fuc(a1-4)]GlcNAc
Outline: (§1)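 The binding signal is a Z-score computed within each array and averaged over linkers. Arrays of the same protein sequence at different concentrations or buffers were also averaged together. Data originate from 3228 arrays in the Consortium for Functional Glycomics database, kept only where the protein sequence was available.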

[2] = target: Neu5Ac(a2-3)Gal(b1-3)[Fuc(a1-4)]GlcNAc(b1-3)Gal(b1-3)[Fuc(a1-4)]GlcNAc
Outline: as §1

[3] = target: Neu5Ac(a2-3)Gal(b1-3)[Fuc(a1-4)]GlcNAc(b1-3)Gal(b1-4)[Fuc(a1-3)]GlcNAc
Outline: as §1

[4] = target: Neu5Ac(a2-3)Gal(b1-3)[GlcNAc(b1-6)]GalNAc
Outline: as §1

[5] = target: Neu5Ac(a2-3)Gal(b1-3)[Neu5Ac(a2-6)]GalNAc
Outline: as §1

[6] = target: Neu5Ac(a2-3)Gal(b1-3)[Neu5Ac(a2-6)]GlcNAc(b1-3)[Fuc(a1-3)[Gal(b1-4)]GlcNAc(b1-6)]Gal(b1-4)Glc
Outline: as §1

[7] = target: Neu5Ac(a2-3)Gal(b1-3)]Neu5Ac(a2-3)Gal(b1-4)]GlcNAc
Outline: as §1

Neu5Ac(a2-3)Gal(b1-4)Glc = target: Neu5Ac(a2-3)Gal(b1-4)Glc
Outline: as §1

[8] = target: Neu5Ac(a2-3)Gal(b1-4)GlcNAc
Outline: as §1

[9] = target: Neu5Ac(a2-3)Gal(b1-4)GlcNAc(b1-2)Man
Outline: as §1

[10] = target: Neu5Ac(a2-3)Gal(b1-4)GlcNAc(b1-2)Man(a1-3)[GlcNAc(b1-4)][Neu5Ac(a2-3)Gal(b1-4)GlcNAc(b1-2)Man(a1-6)]Man(b1-4)GlcNAc(b1-4)GlcNAc
Outline: as §1

[11] = target: Neu5Ac(a2-3)Gal(b1-4)GlcNAc(b1-2)Man(a1-3)[Neu5Ac(a2-3)Gal(b1-4)GlcNAc(b1-2)Man(a1-6)]Man(b1-4)GlcNAc(b1-4)GlcNAc
Outline: as §1

[12] = target: Neu5Ac(a2-3)Gal(b1-4)GlcNAc(b1-2)Man(a1-3)[Neu5Ac(a2-3)Gal(b1-4)GlcNAc(b1-2)Man(a1-6)]Man(b1-4)GlcNAc(b1-4)[Fuc(a1-6)]GlcNAc
Outline: as §1

[13] = target: Neu5Ac(a2-3)Gal(b1-4)GlcNAc(b1-2)Man(a1-3)[Neu5Ac(a2-6)Gal(b1-4)GlcNAc(b1-2)Man(a1-6)]Man(b1-4)GlcNAc(b1-4)GlcNAc
Outline: as §1

[14] = target: Neu5Ac(a2-3)Gal(b1-4)GlcNAc(b1-2)[Neu5Ac(a2-3)Gal(b1-4)GlcNAc(b1-4)]Man(a1-3)[GlcNAc(b1-4)][Neu5Ac(a2-3)Gal(b1-4)GlcNAc(b1-2)[Neu5Ac(a2-3)Gal(b1-4)GlcNAc(b1-6)]Man(a1-6)]Man(b1-4)GlcNAc(b1-4)GlcNAc
Outline: as §1

[15] = target: Neu5Ac(a2-3)Gal(b1-4)GlcNAc(b1-2)[Neu5Ac(a2-3)Gal(b1-4)GlcNAc(b1-4)]Man(a1-3)[GlcNAc(b1-4)][Neu5Ac(a2-3)Gal(b1-4)GlcNAc(b1-4)Man(a1-6)]Man(b1-4)GlcNAc(b1-4)GlcNAc
Outline: as §1

[16] = target: Neu5Ac(a2-3)Gal(b1-4)GlcNAc(b1-2)[Neu5Ac(a2-3)Gal(b1-4)GlcNAc(b1-6)]Man(a1-6)[Neu5Ac(a2-3)Gal(b1-4)GlcNAc(b1-2)Man(a1-3)]Man(b1-4)GlcNAc(b1-4)GlcNAc
Outline: as §1

[17] = target: Neu5Ac(a2-3)Gal(b1-4)GlcNAc(b1-2)[Neu5Ac(a2-3)Gal(b1-4)GlcNAc(b1-6)]Man(a1-6)[Neu5Ac(a2-3)Gal(b1-4)GlcNAc(b1-2)Man(a1-3)][GlcNAc(b1-4)]Man(b1-4)GlcNAc(b1-4)GlcNAc
Outline: as §1

[18] = target: Neu5Ac(a2-3)Gal(b1-4)GlcNAc(b1-3)Gal
Outline: as §1

[19] = target: Neu5Ac(a2-3)Gal(b1-4)GlcNAc(b1-3)Gal(b1-3)GlcNAc
Outline: as §1

[20] = target: Neu5Ac(a2-3)Gal(b1-4)GlcNAc(b1-3)Gal(b1-4)GlcNAc
Outline: as §1

[21] = target: Neu5Ac(a2-3)Gal(b1-4)GlcNAc(b1-3)Gal(b1-4)GlcNAc(b1-2)Man(a1-3)[Neu5Ac(a2-3)Gal(b1-4)GlcNAc(b1-3)Gal(b1-4)GlcNAc(b1-2)Man(a1-6)]Man(b1-4)GlcNAc(b1-4)GlcNAc
Outline: as §1

[22] = target: Neu5Ac(a2-3)Gal(b1-4)GlcNAc(b1-3)Gal(b1-4)GlcNAc(b1-3)Gal(b1-4)GlcNAc
Outline: as §1

[23] = target: Neu5Ac(a2-3)Gal(b1-4)GlcNAc(b1-3)Gal(b1-4)GlcNAc(b1-3)Gal(b1-4)GlcNAc(b1-2)Man(a1-3)[Neu5Ac(a2-3)Gal(b1-4)GlcNAc(b1-3)Gal(b1-4)GlcNAc(b1-3)Gal(b1-4)GlcNAc(b1-2)Man(a1-6)]GalNAc
Outline: as §1

[24] = target: Neu5Ac(a2-3)Gal(b1-4)GlcNAc(b1-3)Gal(b1-4)GlcNAc(b1-3)GalNAc
Outline: as §1

[25] = target: Neu5Ac(a2-3)Gal(b1-4)GlcNAc(b1-3)Gal(b1-4)GlcNAc(b1-3)[Neu5Ac(a2-3)Gal(b1-4)GlcNAc(b1-3)Gal(b1-4)GlcNAc(b1-6)]GalNAc
Outline: as §1

[26] = target: Neu5Ac(a2-3)Gal(b1-4)GlcNAc(b1-3)Gal(b1-4)GlcNAc(b1-6)[Gal(b1-3)]GalNAc
Outline: as §1

[27] = target: Neu5Ac(a2-3)Gal(b1-4)GlcNAc(b1-3)Gal(b1-4)[Fuc(a1-3)]GlcNAc
Outline: as §1

[28] = target: Neu5Ac(a2-3)Gal(b1-4)GlcNAc(b1-3)GalNAc
Outline: as §1

[29] = target: Neu5Ac(a2-3)Gal(b1-4)GlcNAc(b1-3)[Neu5Ac(a2-3)Gal(b1-4)GlcNAc(b1-6)]GalNAc
Outline: as §1

[30] = target: Neu5Ac(a2-3)Gal(b1-4)GlcNAc(b1-6)GalNAc
Outline: as §1

[31] = target: Neu5Ac(a2-3)Gal(b1-4)GlcNAc(b1-6)[Gal(b1-3)]GalNAc
Outline: as §1

[32] = target: Neu5Ac(a2-3)Gal(b1-4)GlcNAc(b1-6)[Neu5Ac(a2-3)Gal(b1-3)]GalNAc
Outline: as §1

[33] = target: Neu5Ac(a2-3)Gal(b1-4)GlcNAc6S
Outline: as §1

[34] = target: Neu5Ac(a2-3)Gal(b1-4)[Fuc(a1-3)]GlcNAc
Outline: as §1

[35] = target: Neu5Ac(a2-3)Gal(b1-4)[Fuc(a1-3)]GlcNAc(b1-2)Man
Outline: as §1

[36] = target: Neu5Ac(a2-3)Gal(b1-4)[Fuc(a1-3)]GlcNAc(b1-3)Gal
Outline: as §1

[37] = target: Neu5Ac(a2-3)Gal(b1-4)[Fuc(a1-3)]GlcNAc(b1-3)Gal(b1-4)GlcNAc
Outline: as §1

[38] = target: Neu5Ac(a2-3)Gal(b1-4)[Fuc(a1-3)]GlcNAc(b1-3)Gal(b1-4)[Fuc(a1-3)]GlcNAc(b1-3)Gal(b1-4)[Fuc(a1-3)]GlcNAc
Outline: as §1

[39] = target: Neu5Ac(a2-3)Gal(b1-4)[Fuc(a1-3)]GlcNAc(b1-3)GalNAc
Outline: as §1

[40] = target: Neu5Ac(a2-3)Gal(b1-4)[Fuc(a1-3)]GlcNAc(b1-6)[Gal(b1-3)]GalNAc
Outline: as §1

[41] = target: Neu5Ac(a2-3)Gal(b1-4)[Fuc(a1-3)]GlcNAc(b1-6)[Neu5Ac(a2-3)Gal(b1-3)]GalNAc
Outline: as §1

[42] = target: Neu5Ac(a2-3)Gal(b1-4)[Fuc(a1-3)]GlcNAc6S
Outline: as §1

[43] = target: Neu5Ac(a2-3)Gal6S(b1-4)GlcNAc
Outline: as §1

[44] = target: Neu5Ac(a2-3)Gal6S(b1-4)[Fuc(a1-3)]GlcNAc
Outline: as §1

B1: Microvirin-2 (Microcystis aeruginosa) (protein)
chain: MPNFSHTCSSINYDPDSTILSAECQARDGEWLPTELRLSDHIGNIDGELQFGDQNFQETCQDCHLEFGDGEQSVWLVCTCQTMDGEWKSTQILLDSQIDNNDSQLEIGGSMPNFSHTCSSINYDPDSTILSAECQARDGEWLPTELRLSDHIGNIDGELQFGDQNFQETCQDCHLEFGDGEQSVWLVCTCQTMDGEWKSTQILLDSQIDNNDSQLEIG
Q: Which results are given for B1?
A: glycan array binding signal (z-score) [1]: -0.143; glycan array binding signal (z-score) [2]: -0.084; glycan array binding signal (z-score) [3]: -0.048; glycan array binding signal (z-score) [4]: -0.131; glycan array binding signal (z-score) [5]: -0.108; glycan array binding signal (z-score) [6]: -0.128; glycan array binding signal (z-score) [7]: -0.137; glycan array binding signal (z-score) (Neu5Ac(a2-3)Gal(b1-4)Glc): -0.134; glycan array binding signal (z-score) [8]: -0.128; glycan array binding signal (z-score) [9]: 0.072; glycan array binding signal (z-score) [10]: -0.146; glycan array binding signal (z-score) [11]: -0.14; glycan array binding signal (z-score) [12]: -0.139; glycan array binding signal (z-score) [13]: -0.142; glycan array binding signal (z-score) [14]: -0.136; glycan array binding signal (z-score) [15]: -0.132; glycan array binding signal (z-score) [16]: -0.102; glycan array binding signal (z-score) [17]: -0.147; glycan array binding signal (z-score) [18]: -0.144; glycan array binding signal (z-score) [19]: -0.143; glycan array binding signal (z-score) [20]: -0.145; glycan array binding signal (z-score) [21]: 0.005; glycan array binding signal (z-score) [22]: -0.142; glycan array binding signal (z-score) [23]: 0.074; glycan array binding signal (z-score) [24]: -0.139; glycan array binding signal (z-score) [25]: -0.105; glycan array binding signal (z-score) [26]: -0.115; glycan array binding signal (z-score) [27]: -0.137; glycan array binding signal (z-score) [28]: -0.136; glycan array binding signal (z-score) [29]: -0.144; glycan array binding signal (z-score) [30]: -0.131; glycan array binding signal (z-score) [31]: -0.139; glycan array binding signal (z-score) [32]: -0.129; glycan array binding signal (z-score) [33]: -0.146; glycan array binding signal (z-score) [34]: -0.14; glycan array binding signal (z-score) [35]: -0.12; glycan array binding signal (z-score) [36]: -0.142; glycan array binding signal (z-score) [37]: -0.108; glycan array binding signal (z-score) [38]: -0.114; glycan array binding signal (z-score) [39]: -0.087; glycan array binding signal (z-score) [40]: -0.121; glycan array binding signal (z-score) [41]: -0.105; glycan array binding signal (z-score) [42]: -0.128; glycan array binding signal (z-score) [43]: -0.134; glycan array binding signal (z-score) [44]: -0.149

— the supplement of paper PMC8728848
